Measurements reported in paper PMC4207660, “Identification and Characterization of Hundreds of Potent and Selective Inhibitors of Trypanosoma brucei Growth from a Kinase-Targeted Library Screening Campaign” (PLoS Neglected Tropical Diseases, 2014).

Key:
[1] = target: T1, Human Serum Albumin (HSA) (Homo sapiens, UniProt P02768); test: Protein binding assay (HPLC stationary phase), HSA; type: in vitro ADME; conditions: Measured
T1 construct: purchased Chiral Technologies, France
Experimental: Chemically bonded Human Serum Albumin (HSA) and Alpha-1-acidglycoprotein HPLC stationary phases (Chiral Technologies, France) were used for measuring compounds' binding to plasma proteins, applying linear gradient elution up to 30% iso-propanol. The run time was 6 min, including the re-equilibration of the stationary phases with the 50 mM pH7.4 ammonium acetate buffer. The obtained gradient retention times were standardised using a calibration set of mixtures as described in the references. The average standard error of the assay depends on the binding strength and kinetics of the compounds.

[2] = target: Cytochrome P450 (CYP450) (Homo sapiens, UniProt P08684); test: Cytochrome P450 inhibition profile; type: in vitro ADME; conditions: Measured
Experimental: The P450 inhibition profile of the inhibitors was determined as previously described.

[3] = CLND kinetic solubility assay; type: physicochemical; conditions: phosphate buffered saline, pH 7.4, aqueous buffer, kinetic from dmso stock; Measured; read-out: Aq Sol
Experimental: 5 µL of 10 mM DMSO stock solution was diluted to 100 µL with pH 7.4 phosphate buffered saline, equilibrated for 1 hour at room temperature, filtered through Millipore MultiscreenHTS-PCF filter plates (MSSL BPC). The filtrate was quantified by suitably calibrated flow injection Chemi-Luminescent Nitrogen Detection.

[4] = tested on: T. brucei brucei parasites (Lister 427 strain); test: Dose response growth inhibition assay (resazurin, 72 h); type: cell-based; conditions: Trypanosoma brucei; T. b. brucei growth inhibition; read-out: Tbb pEC50 (converted)
Experimental: Greiner sterile black clear bottom 384-well assay plates were pre-dispensing with 200 nL of compound in each well, from master plates at 1 mM (100% DMSO) containing selection from the GSK compound collection. Controls of 0% response (control 1, 200 nL of 100%DMSO) and 100% response (control 2, 200 nL of 1 mM pentamidine) were included in each assay plate in columns 6 and 18, respectively. Plates containing 200 nL of 100% DMSO were included randomly in the assay, to assess quality through all process. […] After this period, 10 µL of 200 µM resazurin solution in prewarmed HMI-9 were added to each well, and plates were allowed to incubate 2 hours more prior fluorescence reading in a Wallac EnVision Multilabel Plate Reader (Perkin-Elmer). Raw fluorescent data from the Envision plate reader were uploaded into GSK HTS database (ActivityBase). Activity of each well was normalized as a percentage of inhibition per-plate basis using the following equation: [drawing 1]
For dose-response experiments, serial compound dilutions of selected hits from the primary campaign were plotted against compound concentration. Dose response master plates were prepared by 3-fold dilutions (starting with 10 mM DMSO stock solutions), providing 11 concentrations. From these master plates, 200 nL per well was stamped in final assay plates, including the same controls describe in the primary single shot assay. […]

[5] = ChromlogD assay
Experimental: The Chromatographic Hydrophobicity Index (CHI)[22] values were measured using reversed phase HPLC column (Luna C18 (2), Phenomenex, UK) with a fast acetonitrile gradient at starting mobile phase of pH = 7.4. CHI values are derived directly from the gradient retention times by using a calibration line obtained for standard compounds. The CHI value approximates to the volume % organic concentration when the compound elutes. […] The average error of the assay is ±3 CHI unit or ±0.25 ChromlogD.

[6] = CYP3A4, VG substrate, read-out: CYP3A4VG pXC50 (converted)

HSA % binding [1] | IC50 [2, 6] | IC50 ([2]; CYP3A4, VR substrate, read-out: CYP3A4VR pXC50 (converted)) | solubility kinetic at 1 h [3] | PFI [5] | SMILES | EC50 [4]
96.86% | 25.1 nM | 7.94 nM | 2 µM (≈ 0.835 µg/mL) | 8.4 | O[C@H]1CC[C@H](Nc2cccc(Nc3nc4ccc(-c5ccncc5)cc4s3)n2)CC1 [NEU-0001115] | 39.8 nM
– | 10000 nM | – | – | – | O=C(N[C@H](CO)c1ccccc1)c1ccc2cncc(-c3cn[nH]c3)c2n1 [NEU-0001114] | 631 nM

Values after ≈ are worked out from the molar mass of the structure shown. Where two headings read alike, the source gives them in different places.
